{
  "source": "patent WO2010064089A1",
  "binders": {"B1": {"name": "[224G11][TH7 chim] (antibody)", "heavy": "EVQLQQSGPELVKPGASVKISCKTSGYIFTAYTMHWVRQSLGESLDWIGGIKPNNGLANYNQKFKGKATLTVDKSSSTAYMDLRSLTSEDSAVYYCARSEITTEFDYWGQGTALTVSSASTKGPSVFPLAPSSKSTSGGTAALGCLVKDYFPEPVTVSWNSGALTSGVHTFPAVLQSSGLYSLSSVVTVPSSSLGTQTYICNVNHKPSNTKVDKRVEPKSCDCH[human IgG1 Fc not listed]", "light": "DIVLTQSPASLAVSLGQRATISCRASESVDSYANSFMHWYQQKPGQPPKLLIYRASNLESGIPARFSGSGSRTDFTLTINPVEADDVATYYCQQSKEDPLTFGSGTKLEMKRTVAAPSVFIFPPSDEQLKSGTASVVCLLNNFYPREAKVQWKVDNALQSGNSQESVTEQDSKDSTYSLSSTLTLSKADYEKHKVYACEVTHQGLSSPVTKSFNRGEC"}},
  "key": {"[1]": {"target": "C-Met-Rluc expressed with a mutated form of Gab1 fused to YFP in a CHO stable cell line (c-Met activation BRET model) (R. reniformis), P08581", "experiment": "cell-based or functional assay"}, "[2]": {"target": "C-Met-Rluc and C-Met-K1100A-YFP co-expressed in a CHO stable cell line (c-Met dimerization BRET model) (R. reniformis), P08581", "experiment": "cell-based or functional assay"}},
  "data": [
    {"binder": "B1", "values": [
      {"measurement": "BRET signal with Mab alone, c-Met activation model", "setting": "[1]", "value": -6.9, "unit": "%"},
      {"measurement": "inhibition of the HGF induced activation BRET signal", "setting": "[1]", "value": 73.8, "unit": "%"},
      {"measurement": "inhibition of the HGF induced c-Met dimerization BRET signal", "setting": "[2]", "value": 64.4, "unit": "%"}
    ]}
  ]
}
